Several values for one entry are separate records, joined by “and”; a condition that tells them apart may be missing. Equal values may be shown once. Some of the results follow. Shown are side measurements of this screen, not its main read-out; they come without a call.
Legend:
Assay in all cases: Primary Screen for Target Class Profiling of Small Molecule Inhibitors of Methyltransferases
[1] = molecular target: Glycine N-methyltransferase (Homo sapiens) (UniProt Q14749); conditions: purified enzyme, MTase-Glo SAH luminescence; measured here: GNMT inhibition; at 40 µM; stronger effect = lower value
In short: (§1)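 Each enzyme was assayed with SAM and its substrate. SAH formation detected by MTase-Glo luminescence; single-point 40 uM screen[…].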

[2] = molecular target: Guanidinoacetate N-methyltransferase (Homo sapiens) (UniProt Q14353); conditions: purified enzyme, MTase-Glo SAH luminescence; measured here: GAMT inhibition; at 40 µM; stronger effect = lower value
In short: as §1

[3] = molecular target: Histamine N-methyltransferase (Homo sapiens) (UniProt P50135); conditions: purified enzyme, MTase-Glo SAH luminescence; measured here: HNMT inhibition; at 40 µM; stronger effect = lower value
In short: as §1

[4] = molecular target: Nicotinamide N-methyltransferase (Homo sapiens) (UniProt P40261); conditions: purified enzyme, MTase-Glo SAH luminescence; measured here: NNMT inhibition; at 40 µM; stronger effect = lower value
In short: as §1

[5] = molecular target: Phenylethanolamine N-methyltransferase (Homo sapiens) (UniProt P11086); conditions: purified enzyme, MTase-Glo SAH luminescence; measured here: PNMT inhibition; at 40 µM; stronger effect = lower value
In short: as §1
% is set by controls: 0 for no effect and ±100 for the full control effect.

| Compound | activity change, negative = inhibition [1] | activity change, negative = inhibition [2] | activity change, negative = inhibition [3] | activity change, negative = inhibition [4] | activity change, negative = inhibition [5] |
| --- | --- | --- | --- | --- | --- |
| CC(=O)O[C@H]1C[C@@](O)(C(C)C)[C@@H]2[C@@H](OC(=O)c3ccc(O)cc3)CC(C)=CC[C@@]12C | 0% | 5.74% | 11.5% | -7.73% | -1.58% |
| CCCn1c(=O)c2ccc(C(=O)NC3CCCCC3)cc2n2c(SCc3ccccc3)nnc12 | 5.88% | 0% | 7.46% | 1.95% | 5.58% |
| CCCn1c(=O)c2ccc(Cl)cc2n2c(=O)n(CC(=O)NCc3cccc(OC)c3)nc12 | -4.25% | 2.32% | -1.61% | -1.61% | -2.13% |
| O=C(CC1C(=O)NCCN1Cc1cccc(Oc2ccccc2)c1)NCc1ccoc1 (stereo not given) | -43% | -8.82% | -3.41% | -8.59% | -4.99% |
| CC(CNC(=O)CCc1nnc2n(Cc3ccccc3Cl)c(=O)c3ccccc3n12)c1ccccc1 (stereo not given) | -6.7% | 4.85% | 2.84% | -1.96% | -3.51% |
| CN(Cc1ccccc1)C(=O)c1cc2n(n1)CC(C)(C(=O)NC1CCCCCC1)N(C)C2=O (stereo not given) | 0.074% | 0.611% | -3.55% | 0.34% | -5.21% |
| COc1cccc(CNC(=O)N2Cc3c(sc4c3CCCC4)-n3cccc3C2c2cc(F)cc(F)c2)c1 (stereo not given) | 1.44% | 0% | 4.15% | 2.25% | -11% |
| Cc1cccc(NC(=O)CSc2nnc3n(C)c(=O)c4ccc(C(=O)NC5CCCCC5)cc4n23)c1 | 0.849% | 0% | 1.72% | 5.17% | 3.02% |
| O=C(Cn1nc2n(Cc3ccc(F)cc3)c(=O)c3ccccc3n2c1=O)NC1CCCCC1 | 5.25% | 0% | 5.37% | 1.95% | 2.46% |
| CC(=O)NC[C@H]1CN(c2ccc(N3CCOCC3)c(F)c2)C(=O)O1 | 5.71% and 2.79% | 15.2% and 5.31% | 12.5% and 14.4% | -1.92% and -8.17% | 2.32% and 5.15% |
| CC(C)Cn1c(=O)c2ccc(C(=O)NC3CCCC3)cc2n2c(=O)n(Cc3ccccc3)nc12 | -2% | 3.83% | -1.52% | 2.83% | 1.85% |
| COCCNC(=O)CCc1nnc2n(Cc3ccc(F)cc3)c(=O)c3ccccc3n12 | -11.8% | 4.3% | -2.07% | 3.81% | -2.59% |
| COc1cccc(S(=O)(=O)N2C[C@@H](F)C[C@H]2C(=O)N2CCc3ccccc3C2)c1 | -7.57% | -3.16% | -0.324% | -10.1% | -8.01% |
| CN1C(=O)c2cc(C(=O)NCc3ccccc3Cl)nn2CC1(C)C(=O)NC1CCCCC1 (stereo not given) | -0.449% | -0.72% | 2.55% | 0.157% | -0.704% |
| [Li+] | 3.14% | 8.31% | 3.86% | -4.85% | 7.84% |
| Cn1sc(=O)n(Cc2ccccc2)c1=O | 2.4% | 3.14% | 4.88% | -8.93% | 1.61% |
| O=C(CCn1ccc(=O)[nH]c1=O)N[C@H](c1cccs1)C1CC(O)C1 (stereo not given in full) | 0.095% | 6.36% | -2.1% | 3.66% | 2.82% |
| CCCNC(=O)C1COC2(CCN(C(=O)Cc3ccccc3)CC2)N1C(=O)c1cccc(C)c1 (stereo not given) | -2.65% | -1.14% | 0.131% | 4.57% | 4.73% |
| COC[C@H]1CCCN1Cc1nc(C2(O)CCN(C(=O)CC(C)(C)C)CC2)cs1 | -5.86% | -5.31% | -2.35% | -7% | 12% |
| O=C(c1cc(-c2ccc(F)cc2)n[nH]1)N1CCC(OCC2CC2)C1 (stereo not given) | -14.6% | -6.34% | -4.08% | -14.8% | -11.7% |
| Cc1ccc(CN2C(=O)c3cc4occc4n3CC2(C)C(=O)NC2CCCCCCC2)cc1 (stereo not given) | -2.33% | 0% | 2.63% | -5.99% | -2.56% |
| O=C(Cn1c(=O)oc2cc(S(=O)(=O)NCc3ccccc3)ccc21)N1CCCCC1 | -3.52% | 0% | 4.36% | 7.89% | -2.94% |
| CCOC(=O)C(C)Oc1ccc2c(-c3ccccc3)cc(=O)oc2c1 (stereo not given) | -2.37% | 0% | 6.94% | -8.24% | -10.1% |
| CCCCNc1nc2c(-c3ccc(OC)cc3)nnn2c2ccccc12 | 0.441% | 1.11% | -1.12% | 3.36% | -2.11% |
| CCNC(=O)N1CCC[C@@H](O)[C@H](NC(=O)c2ccc(OCc3c(C)noc3C)cc2)C1 | -5.26% | 0.887% | -0.595% | -0.615% | -1.03% |
| COc1ccccc1N1CCN([C@@H]2[C@H](O)[C@H](CO)O[C@@H]2CNC2CCCCC2)CC1 | -5.41% | -8.42% | -4.81% | -8.87% | -8.28% |
| CCOc1ccc(CN2C(=O)c3cc(-c4cccs4)nn3CC2(C)C(=O)NC2CCCCC2)cc1 (stereo not given) | -2.83% | 5.98% | 2.31% | 5.79% | -0.144% |
| OC[C@@]1(O)CO[C@H](OC[C@H]2O[C@@H](OC(CCCCc3ccc(O)cc3)CCc3ccc(O)cc3)[C@H](O[C@H]3OC[C@](O)(CO)[C@H]3O)[C@@H](O)[C@@H]2O)[C@@H]1O (stereo not given in full) | 0% | 7.18% | 9.48% | -5.3% | 6.96% |
| COC(=O)c1ncn2c1C(=O)N(c1cc(C)ccc1C)C(C)(C(=O)NC1CCCC1)C2 (stereo not given) | 1.29% | 1.98% | -8.24% | 0.663% | -3.44% |
